PubChem BioAssay AID1508624 (National Center for Advancing Translational Sciences (NCATS), 2021)
About 120 (0.25%) of roughly 48,000 compounds were called active. Inconclusive results (about 4%) are left out. Calls follow the shape of the dose curve; as a rule, active = well fitted activation curve with a large enough effect; inconclusive = small, poorly fitted or top-dose-only effect, or another doubt; inactive = no such curve, though single readings can be large or run the other way. The list shows a part of the results.

experiment: Primary qHTS for Identification of Small Molecule Activators of Huntingtin-Antisense Promoter Activity; settings: HEK293 HTT-AS promoter firefly luciferase reporter, 24 h; series mostly up to 57.5 µM; activity change, positive = activation: at the top concentration; also: nearly all actives have a fitted effect of over 55% in size
How it was run: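 HEK293 Fluc reporter, 2,500 cells/well, 24 h pre-culture; cpds up to 57.5 uM final, 24 h 37 degrees C; Dual-Glo, 10 min RT; normalized vehicle = 0%, zero RLU = -100%.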

Activity change, positive = activation, inactive:
CCOc1ccc(CNC(=O)CCc2cn(CC)c3ccccc23)cc1 -4.02%
CCCOc1ccccc1-c1nc2n[nH]nc2c(=O)[nH]1 -21.4%
CCc1ccc(NC(=O)C2CCN(S(=O)(=O)c3c(C)noc3/C=C\c3ccc(OC)cc3)CC2)cc1 -8.71%
COc1cc(C(=O)Nc2ccc(OCc3cc(=O)n4cccc(C)c4n3)cc2)cc(OC)c1OC -3.07%
O=C(NCCc1ccccc1)c1ccc(CSc2nc3ccncc3n2Cc2cccc(F)c2)cc1 -11.3%
CCN(CC)C(=O)c1sc2c(c1C)c(=O)n(CCc1ccccc1)c(=O)n2Cc1cccc(Cl)c1 -28.3%
COc1ccccc1CNc1ccc(-c2nc(-c3cccc(C)c3)no2)cc1[N+](=O)[O-] 1.85%
O=C(c1cnc(N2CCOCC2)c2ccccc12)N1CCN(c2ccccc2F)CC1 -19.1%
CN(C)c1ccc(CNC(=O)c2ccc3c(c2)N(C)C(=O)C2CCCCN32)cc1 (stereo not given) -4.91%
CCOc1ccccc1N1CC(c2nc3ccccc3n2CCCCOc2cc(C)ccc2C)CC1=O (stereo not given) -14.8%
COc1ccc(-n2nc(C(=O)NCc3ccc(F)cc3)c3c4ccccc4n(C)c3c2=O)cc1 -7.96%
COc1ccc(NC(=O)CN(C)S(=O)(=O)c2ccc3nc(C)sc3c2)cc1 -3.77%
CC(C)CCNC(=O)c1cc(Sc2ccc(F)cc2F)nc2ccccc12 -22.1%
COc1ccc(N2C(=O)CS(=O)(=O)C23C(=O)N(Cc2c(F)cccc2Cl)c2ccccc23)cc1 (stereo not given) -23%
CCCCn1cc(S(=O)(=O)c2ccccc2)c(=O)c2cc(F)c(N3CCC(C)CC3)cc21 -9.07%
CCOC(=O)c1cnc2c(C)cc(C)cc2c1Nc1ccc(OCc2ccccc2)cc1 -6.87%
O=C(CN1CCN(CC(=O)Nc2ccccc2F)CC1)Nc1ccc(Cl)c(C(F)(F)F)c1 -7.55%
CCOC(=O)C1=C(C(F)(F)F)Nc2ncnn2C1c1cccc(OC)c1OC (stereo not given) 6.91% [at 11.5 µM, percent change from vehicle, -100% = no light]
CCOc1ccc(C(c2c(O)cc(C)n(CCOC)c2=O)N2CCN(c3ccc(F)cc3)CC2)cc1 (stereo not given) 13.9%
Cc1cccc2cc(-c3nc(-c4cccs4)no3)c(=O)oc12 18%
Cc1sc2ncn(CC(=O)N3CCN(c4cccc(Cl)c4)CC3)c(=O)c2c1S(=O)(=O)N1CCC(C)CC1 4.41%
O=C(Nc1ccccc1Br)N[C@@H]1CCN(c2ccc(C(F)(F)F)cn2)C1 -7.53%
CCN(CC)C(=O)Cn1c(=O)n(CCCCCC(=O)NCc2ccc(C)cc2)c(=O)c2sccc21 1.64%
CCOc1ccc(-n2c(=O)c3c(C)c(C)sc3n(Cc3ccc(C(C)(C)C)cc3)c2=O)cc1 -9.42%
CC(=O)N1CCc2c(sc3c2c(=O)n(-c2cc(Cl)ccc2C)c(=O)n3C)C1 -29.1%
COC(=O)c1ccc(NC(=O)CN(C)S(=O)(=O)c2ccc3c(c2)CCCC(=O)N3)cc1 -33.4%
CCCCNC(=O)Cn1nc(N2CCN(c3ccccc3OC)CC2)ccc1=O -6.81%
CCn1cc(S(=O)(=O)c2cc(C)cc(C)c2)c(=O)c2cc(F)c(N3CCN(c4ccccc4)CC3)cc21 2.41%
COc1cccc(C(=O)N2CCc3cc(OC)c(OC)cc3C2COc2ccc3c(C)cc(=O)oc3c2)c1 (stereo not given) 15.4%
CCCCCN=C(N)N/N=C/c1c[nH]c2ccc(OC)cc12 -41.8%
N#C/C(=C/c1ccccc1Cl)c1nc(-c2cc3ccccc3oc2=O)cs1 -13.4%
O=C(Cn1c(=O)n(CC2CCCO2)c(=O)c2ccccc21)Nc1ccc(F)cc1F (stereo not given) -8.36%
COc1cc(C)ccc1OCCSc1nc2ccc(NC(=O)c3ccccc3F)cc2s1 -4.96%
COC(=O)c1cc(NC(=O)Cn2nc(-c3ccccc3)c3c(c2=O)CCCC3)cc(C(=O)OC)c1 -22.5%
CCc1ccc(-c2cc(C)no2)cc1S(=O)(=O)NCc1ccc(OC)cc1 -39.1%
Cc1ccc(NS(=O)(=O)c2ccc3[nH]c4c(c3c2)CCCCCC4)cc1C -33.4%
CCOc1ccccc1CNC(=O)CCCn1c(=O)c2cccn2c2ccc(F)cc21 -35%
Cc1ccc2nc(N)[nH]c(=O)c2c1Sc1ccncc1 -24.5%
CCOc1ccc(S(=O)(=O)Nc2ccc3c(c2)CCCN3S(=O)(=O)c2ccc(C)cc2)cc1 -18.9%
Cc1ccc(CNC(=O)c2cc(NS(=O)(=O)c3ccc(C)cc3)ccn2)cc1 -10.5%
CCOC(=O)c1cc(S(=O)(=O)N(C)c2ccccc2)[nH]n1 -20.4%
Cn1c(C(=O)NCc2ccccc2F)cc2cc(S(=O)(=O)N3CCCCC3)ccc21 -35.7%
COc1ccc(NC(=O)CN(C)S(=O)(=O)c2ccc3nc(C)sc3c2)cc1Cl -30.5%
COC(=O)c1sc2cccc(F)c2c1S(=O)(=O)NCc1ccccc1Cl -6.41%
Cc1cccc(Nc2nnc(-c3ccc(C)c(S(=O)(=O)N4CCOCC4)c3)c3ccccc23)c1 1.08% [at 11.5 µM, percent change from vehicle, -100% = no light]
CCCOc1ccc(C(=O)Nc2ccc(NC(=O)c3ccc(Br)cc3)cc2)cc1 -2.33%
COc1ccc(CCNCc2c(C(=O)O)c(C)n(Cc3cccc(C)c3)c2C)cc1OC -15.1%
Cn1c(Oc2cccc(Cl)c2)nc2c1c(=O)n(Cc1ccccc1Cl)c(=O)n2C -0.786%
COc1ccc(OCC(=O)N2CCN(C(=O)c3cccc(OC)c3OC)CC2)cc1 2.1%
CCCCN(C(=O)CCn1c(=O)oc2ccccc21)c1ccccc1 -13.8%
Cc1cccc(C=NNc2cc(N3CCOCC3)nc(OCCc3ccccn3)n2)c1 -28.1%
CCOc1ccc(-c2cc(CCCC(=O)NCCc3ccc(SC)cc3)no2)cc1 -79%
COCCn1c(C)cc(O)c(C(c2ccccc2Cl)N2CCN(c3ccccc3)CC2)c1=O (stereo not given) -5.05%
O=C(NCC(c1ccco1)S(=O)(=O)c1cccs1)c1c(F)cccc1F (stereo not given) 13%
CCN(CC)C(=O)c1sc2c(c1C)c(=O)n(Cc1ccccc1)c(=O)n2Cc1c(C)cc(C)cc1C -31.6%
Cc1cccc(NC(=O)Cn2c(=O)n(CC3CCC(C(=O)NCCc4ccccc4)CC3)c(=O)c3ccccc32)c1C (stereo not given) -9.28%
CC(C)(C)OC(=O)CN(Cc1ccc(Cl)cc1)Cc1ccc([N+](=O)[O-])s1 -14.1%
Cc1ccc2[nH]c(C)c(CCNC(=O)c3cc4cc(Br)ccc4oc3=O)c2c1 -16%
O=C(NCC(c1cccnc1)N1CCc2ccccc21)c1cccc(F)c1 (stereo not given) -22.8%
CCOC(=O)c1ccc(NC(=O)c2c(NCc3ccc(OC)c(OC)c3OC)sc3c2CCC(C)C3)cc1 (stereo not given) -15.5%
O=C(CN1C(=O)c2ccccc2Sc2ncccc21)Nc1cccc(C(F)(F)F)c1 -38.3%
COc1ccc(Nc2cc(C)c3cc(NC(=O)COc4cccc(C)c4)ccc3n2)cc1 -40%
COc1cccc(CNC(=O)C2=C(C)C(=O)OC23CCCCCC3)c1 -25.4%
COc1ccc2nc(NC(=O)c3nc(S(=O)(=O)Cc4ccc(C)cc4)ncc3Cl)sc2c1 -35.9%
Cc1cccc(N2CCN(C(=O)CCNS(=O)(=O)c3ccc4c(c3)CCN4C(=O)C3CC3)CC2)c1C -40.8%
CCOc1ccccc1NC(=O)CN(c1cc(C)cc(C)c1)S(=O)(=O)c1c(C)nn(C)c1C -25.4%
Cc1cc(C)c(Cn2cnc3nc4c(cc3c2=O)CCCC4)c(C)c1 -24%
CCOc1ccc(C(=O)NCC(c2ccc3c(c2)OCO3)N2CCN(C)CC2)cc1 (stereo not given) -8.03%
CCOc1ccc(NC(=O)N2CCC(n3c(C)nc4cccnc43)CC2)cc1 6.45%
CO[C@H]1O[C@@H]2O[C@@]3(C)CC[C@@H]4[C@@H](C)CC[C@@H]([C@H]1C)[C@@]24OO3 -13.6%
Cc1ccc(-c2nnc(Nc3ccc(O)cc3)c3ccccc23)cc1S(=O)(=O)NC(C)(C)CO -45.2%
CCOc1ccc(S(=O)(=O)N(CC(=O)Nc2ccc(OC)c(Cl)c2)c2ccccc2)cc1 -13.1%
Cc1nn2c(C)c(C(=O)NCc3cccc(Br)c3)cnc2c1-c1ccccc1 9.57%
Cc1cc(C)cc(NC(=O)C2CCN(c3nnc(-n4c(C)ccc4C)s3)CC2)c1 -9.29%
CCOC(=O)c1scc(-c2ccc(C)cc2)c1S(=O)(=O)N1CCN(c2ccccc2)CC1 -15.5%
CCc1cccc(NC(=O)CN(C)S(=O)(=O)c2ccc3c(c2)n(C)c(=O)c(=O)n3C)c1 -3.05%
CCOc1cc(C(=O)Nc2ccc3nc(N4CCN(C)CC4)cc(C)c3c2)cc(OCC)c1OCC -21.7%
COc1ccc(-c2noc(COc3ccc(C)cc3C)n2)cc1OC 0%
COc1ccc(-n2c(SCC(=O)Nc3ccc4c(c3)OCO4)nc3c([nH]c4ccccc43)c2=O)cc1 -26.3%
COc1ccc(S(=O)(=O)N(CC(=O)Nc2ccc(C)cc2)c2ccc(C)cc2)cc1OC -0.593%
Cc1oc2ncnc(N3CCCCC3)c2c1C(=O)N1CCN(c2ccc(Cl)cc2)CC1 1.11%
COc1ccccc1C(=O)Nc1ccc(S(=O)(=O)Nc2nc(C)cc(C)n2)cc1 -15.9%
COc1ccc(S(=O)(=O)N(CC(=O)NCCc2ccccc2)c2ccc(Cl)cc2)cc1 -22.4%
CCOC(=O)c1ccccc1NC(=O)CSc1cn(CC(=O)N2CCCCCC2)c2ccccc12 -36.9%
COc1ccc(NC(=O)c2ccco2)cc1NC(=O)c1cc(Br)ccc1Cl -24.7%
CCOc1ccc(C(=O)c2oc3ccccc3c2NC(=O)c2cc(=O)c3ccc(C)cc3o2)cc1 -9.21%
COc1ccc(-c2nc3c4ccccc4n(CC(=O)N4CCN(c5ccccc5F)CC4)c(=O)n3n2)cc1 -0.763%
CCCCN(CC)CCNC(=O)c1nn(C)c2c1CS(=O)(=O)c1ccccc1-2 7.73%
CCc1ccc(NC(=O)CCCc2nnc3n(C(C)CC)c(=O)c4sccc4n23)cc1 (stereo not given) -5.48%
COc1cc2c(cc1OC)C(COc1ccccc1OC)N(C(=O)c1ccc(S(=O)(=O)N(C)C)cc1)CC2 (stereo not given) -7.06%
